Measurements taken from the antibiotic and cytotoxicity screens of Wong et al. (2023).
The other results are listed elsewhere or left out.

What was measured:
HSkMC = human skeletal muscle cells; assay: cytotoxicity call (relative viability < 0.9); conditions: 10 µM
S. aureus RN4220 = assay: growth inhibition call (relative growth <= 0.2); conditions: 50 µM

SMILES	cytotoxicity call (HSkMC)	growth inhibition call (S. aureus RN4220)
CC(=O)O.N=C(N)NN=Cc1c(Cl)cccc1Cl	inactive	inactive
C[C@H]1CN([C@@H](C)CO)C(=O)c2c(c3ccccc3n2C)-c2ccccc2CO[C@@H]1CN(C)C(=O)c1ccc(F)cc1	inactive	inactive
Cc1noc(C)c1S(=O)(=O)Nc1ccc2c(c1)C(=O)N([C@H](C)CO)C[C@H](C)[C@H](CN(C)S(=O)(=O)c1ccc(Cl)cc1)O2	inactive	inactive
COc1cc(-c2cc(=O)c3c(s2)N(c2ccc(OC)c(OC)c2)[C@@H](c2ccc(O)c(OC)c2)CC3=O)ccc1O	inactive	inactive
CC(CN)(Cc1ccccc1Cl)C(=O)O (stereo not given)	inactive	inactive
C[C@H](CO)N1C[C@H](C)[C@H](CN(C)Cc2ccc(C(F)(F)F)cc2)Oc2ccc(NC(=O)Nc3ccccc3)cc2CC1=O	active	inactive
CCCNC(=O)N1C[C@@H](O)COC[C@H]2O[C@@H](CC(=O)N3CCOCC3)CC[C@@H]21	inactive	inactive
C[C@@H]1CCCCO[C@H](CN(C)C(=O)C2CCCCC2)[C@H](C)CN([C@H](C)CO)C(=O)c2cc(NS(=O)(=O)c3ccc(F)cc3)ccc2O1	inactive	inactive
C[C@@H]1CN([C@H](C)CO)C(=O)CCCn2nncc2CO[C@H]1CN(C)S(=O)(=O)c1ccccc1C#N	inactive	inactive
O=C(CCCCCC(=O)Nc1ccccc1O)N/N=C/[C@H](O)[C@@H](O)[C@@H](O)[C@H](O)C(=O)O	inactive	inactive
C[C@H](CO)N1C[C@H](C)[C@H](CN(C)C(=O)Nc2ccc(F)cc2)OCCCC[C@H](C)Oc2ccc(NC(=O)CCCN(C)C)cc2C1=O	inactive	inactive
CO[C@@H]1CN(C)C(=O)c2ccc(NC(=O)NC(C)C)cc2OC[C@H](C)N(Cc2ccc(-c3ccccn3)cc2)C[C@@H]1C	inactive	inactive
C#CCSC1=N[C@@]2(COCc3ccc(OC)cc3)Oc3ccccc3[C@H]([C@H]2CO[Si](C)(C)C(C)(C)C)N1C(=O)c1ccccc1	inactive	inactive
CC(C)NC(=O)Nc1ccc2c(c1)C(=O)N([C@@H](C)CO)C[C@H](C)[C@@H](CN(C)C(=O)Nc1ccc(F)cc1)OCCCC[C@@H](C)O2	inactive	inactive
C[C@@H]1CN([C@@H](C)CO)C(=O)c2cccc(NC(=O)c3cnccn3)c2O[C@H]1CN(C)Cc1ccccc1	inactive	inactive
C[C@H]1CCCCO[C@H](CN(C)C)[C@@H](C)CN([C@@H](C)CO)C(=O)c2cc(NC(=O)Nc3ccc(C(F)(F)F)cc3)ccc2O1	inactive	inactive
COCC#Cc1ccc2c(c1)O[C@@H](CN(C)C(=O)C1CCOCC1)[C@@H](C)CN([C@H](C)CO)S2(=O)=O	inactive	inactive
COc1ccc(S(=O)(=O)Nc2ccc3c(c2)C(=O)N([C@@H](C)CO)C[C@H](C)[C@H](CN(C)Cc2ccc(-c4ccccc4)cc2)O3)cc1	inactive	inactive
CCS(=O)(=O)Nc1ccc2c(c1)C(=O)N(C)C[C@@H](OC)[C@H](C)CN(Cc1cccnc1)[C@H](C)CO2	inactive	inactive
CC(=O)C=C(O)CCC(=O)O	inactive	inactive
COc1ccc(S(=O)(=O)N(C)C[C@H]2Oc3ccc(NC(=O)Cc4ccccc4)cc3C(=O)N([C@@H](C)CO)C[C@@H]2C)cc1	inactive	inactive
CO[C@@H]1CN(C)C(=O)c2ccc(NS(=O)(=O)c3ccccc3C)cc2OC[C@H](C)N(S(C)(=O)=O)C[C@H]1C	inactive	inactive
C[C@H](CO)N1C[C@H](C)[C@@H](CN(C)S(=O)(=O)c2ccc(Cl)cc2)OCCCC[C@H](C)Oc2ccc(NC(=O)Nc3ccccc3)cc2C1=O	inactive	inactive
CN(C)C(=O)c1ccc(-c2cccc(-c3nc(C(=O)NCc4ccccc4)cc4c3[C@@H](CCO)N([S@@](=O)C(C)(C)C)C4)c2)cc1	active	inactive
C[C@H]1CN([C@@H](C)CO)C(=O)c2cccc(NC(=O)NC3CCCCC3)c2O[C@H]1CN(C)C(=O)Nc1cccc2ccccc12	inactive	inactive
CCCC#Cc1ccc2c(c1)O[C@@H](CN(C)S(=O)(=O)c1cccc(OC)c1)[C@@H](C)CN([C@H](C)CO)S2(=O)=O	inactive	inactive
C[C@@H]1CN([C@@H](C)CO)C(=O)c2cc(NC(=O)Nc3ccc(C(F)(F)F)cc3)ccc2O[C@@H](C)CCCCO[C@H]1CN(C)C(=O)c1ccccc1	inactive	inactive
COc1ccc(S(=O)(=O)Nc2ccc3c(c2)C(=O)N([C@H](C)CO)C[C@H](C)[C@@H](CN(C)C(=O)C2CCCCC2)OCCCC[C@H](C)O3)cc1	inactive	inactive

SMILES	cytotoxicity call (HSkMC)	growth inhibition call (S. aureus RN4220)
O=C(C[C@H]1C=C[C@H](NC(=O)CN2CCOCC2)[C@@H](CO)O1)NCCc1ccccc1	inactive	inactive
CC(C)(C)OC(=O)C[C@H]1CC=CC[C@@H](CC(=O)NCCO)C(=O)N[C@@H](Cc2ccccc2)COC1=O	inactive	inactive
C[C@H]1CN([C@@H](C)CO)C(=O)c2cc(NC(=O)NC3CCCCC3)ccc2O[C@@H]1CN(C)S(=O)(=O)c1cn(C)cn1	inactive	inactive
C[C@H]1CN([C@@H](C)CO)C(=O)c2cccc(NC(=O)NC3CCCCC3)c2O[C@@H]1CN(C)C(=O)Nc1ccc(C(F)(F)F)cc1	inactive	inactive
C[C@H](CO)N1C[C@H](C)[C@@H](CN(C)CC2CCCCC2)Oc2ccc(NC(=O)Cc3cn(C)c4ccccc34)cc2C1=O	inactive	inactive
C[C@H]1CN([C@@H](C)CO)C(=O)c2cc(C#CCN(C)C)cnc2O[C@@H]1CN(C)C(=O)Nc1cc(F)ccc1F	inactive	inactive
Cc1ccc(S(=O)(=O)N[C@@H](Cc2ccccc2)C(=O)NCCn2cc(CN3C(=O)COC[C@H]3c3ccccc3)nn2)cc1	inactive	inactive
C[C@@H]1CN([C@@H](C)CO)C(=O)Cc2cc(NC(=O)C3CC3)ccc2O[C@H]1CN(C)C(=O)Nc1ccc2c(c1)OCO2	inactive	inactive
COC[C@H]1C[C@@H](c2nc(-c3ccc4c(c3)COc3cc5c(ccc6[nH]c([C@@H]7CC[C@H](C)N7C(=O)[C@@H](NC(=O)OC)C(C)C)nc65)cc3-4)c[nH]2)N(C(=O)[C@H](NC(=O)OC)c2ccccc2)C1	inactive	inactive
CN1CCN(C(=O)C[C@H]2CC[C@@H]3[C@H](COc4ccc(NC(=O)c5ccc(F)c(F)c5)cc4C(=O)N3C)O2)CC1	inactive	inactive
C[C@H]1CN([C@@H](C)CO)S(=O)(=O)c2ccc(C#CCN(C)C)cc2O[C@H]1CN(C)C(=O)c1ccccc1F	inactive	inactive
O=C(C[C@H]1CC[C@H]2[C@@H](COC[C@H](O)CN2S(=O)(=O)c2ccc(Cl)cc2)O1)N[C@@H]1CCN(Cc2ccccc2)C1	inactive	inactive
COc1ccc(S(=O)(=O)Nc2ccc3c(c2)C(=O)N([C@H](C)CO)C[C@@H](C)[C@@H](CN(C)Cc2ccc(Oc4ccccc4)cc2)O3)cc1	inactive	inactive
Cc1noc(C)c1NC(=O)Nc1ccc2c(c1)C(=O)N([C@H](C)CO)C[C@H](C)[C@H](CN(C)Cc1ccc(Cl)c(Cl)c1)OCCCC[C@@H](C)O2	inactive	inactive
Cc1noc(C)c1S(=O)(=O)Nc1cccc2c1O[C@H](CN(C)Cc1ccc(-c3ccccc3)cc1)[C@H](C)CN([C@@H](C)CO)C2=O	inactive	inactive
C[C@@H]1CN([C@H](C)CO)C(=O)Cc2cc(NS(=O)(=O)c3cccs3)ccc2O[C@@H]1CN(C)S(=O)(=O)c1ccc(F)cc1	inactive	inactive
COc1ccc(NC(=O)Nc2ccc3c(c2)C(=O)N([C@H](C)CO)C[C@H](C)[C@H](CN(C)C(=O)Nc2ccc(C(F)(F)F)cc2)O3)cc1	inactive	inactive
C[C@@H]1CN([C@H](C)CO)C(=O)c2cc(NC(=O)NC3CCCCC3)ccc2O[C@@H](C)CCCCO[C@@H]1CN(C)Cc1ccccc1	inactive	inactive
C=CCOC(=O)[C@H]1[C@@H]2C(=O)O[C@@H](c3ccccc3)[C@@H](c3ccccc3)N2[C@@H](c2ccc(OCCOC(=O)[C@H]3C[C@H]4C(=O)NCC(=O)N4[C@H]3c3cccc(OCCO)c3)cc2)[C@]12C(=O)Nc1ccc(I)cc12	inactive	inactive
O=C(C[C@H]1CC[C@@H]2[C@H](COC[C@H](O)CN2C(=O)Nc2ccc(Cl)c(Cl)c2)O1)NCc1ccncc1	inactive	inactive
C[C@@H]1CN([C@@H](C)CO)C(=O)c2cc(NC(=O)Cc3cn(C)c4ccccc34)ccc2O[C@H]1CN(C)Cc1ccc(Oc2ccccc2)cc1	inactive	inactive
COc1ccc2c3c([nH]c2c1)[C@H](CO)N(C[C@]13CCN(CC1)S(=O)(=O)C)C(=O)Nc1ccc(cc1)F	inactive	inactive
C[C@H]1CN([C@@H](C)CO)C(=O)c2cc(NC(=O)CCN3CCOCC3)ccc2O[C@H]1CN(C)Cc1ccc(C(=O)O)cc1	inactive	inactive
C[C@@H]1CN([C@H](C)CO)C(=O)c2cc(NC(=O)NC3CCCCC3)ccc2O[C@@H](C)CCCCO[C@@H]1CN(C)C(=O)c1ccccc1	inactive	inactive
C[C@H]1CN([C@@H](C)CO)C(=O)Cc2cc(NC(=O)C3CCCCC3)ccc2O[C@@H]1CN(C)Cc1ccc(-c2ccccc2)cc1	inactive	inactive
C[C@@H]1CCCCO[C@@H](CN(C)Cc2ccc(Cl)c(Cl)c2)[C@@H](C)CN([C@@H](C)CO)C(=O)c2cc(NC(=O)Nc3ccccc3)ccc2O1	inactive	inactive
C[C@H]1CCCCO[C@H](CN(C)C(=O)Nc2ccc(F)cc2)[C@@H](C)CN([C@@H](C)CO)C(=O)c2cc(NS(=O)(=O)c3ccccc3)ccc2O1	inactive	inactive
